# According to the supplement of paper PMC8728848:
# This is one part of the list.
# Assays:
# Assay in all cases: glycan array binding signal (z-score within array); higher = stronger binding
# Details in all cases: glycan notation: IUPAC condensed, linker removed
# [1] = target: Gal(b1-4)GlcNAc(b1-3)Gal(b1-4)GlcNAc(b1-2)[Gal(b1-4)GlcNAc(b1-3)Gal(b1-4)GlcNAc(b1-6)]Man(a1-6)[Gal(b1-4)GlcNAc(b1-3)Gal(b1-4)GlcNAc(b1-2)Man(a1-3)]Man(b1-4)GlcNAc(b1-4)GlcNAc
# Outline: (§1)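 Arrays were curated from the Consortium for Functional Glycomics database, 3228 in total, and kept only where the protein sequence was available. Binding is expressed as a within-array Z-score. This score was averaged across arrays of the same protein sequence at different concentrations or buffers and across linkers, and negative values can be read as non-binding.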
# [2] = target: Gal(b1-4)GlcNAc(b1-3)Gal(b1-4)GlcNAc(b1-2)[Gal(b1-4)GlcNAc(b1-3)Gal(b1-4)GlcNAc(b1-6)]Man(a1-6)[Gal(b1-4)GlcNAc(b1-3)Gal(b1-4)GlcNAc(b1-2)Man(a1-3)]Man(b1-4)GlcNAc(b1-4)[Fuc(a1-6)]GlcNAc
# Outline: as §1
# [3] = target: Gal(b1-4)GlcNAc(b1-3)Gal(b1-4)GlcNAc(b1-3)Gal(b1-4)GlcNAc
# Outline: as §1
# [4] = target: Gal(b1-4)GlcNAc(b1-3)Gal(b1-4)GlcNAc(b1-3)Gal(b1-4)GlcNAc(b1-2)Man(a1-3)[Gal(b1-4)GlcNAc(b1-3)Gal(b1-4)GlcNAc(b1-3)Gal(b1-4)GlcNAc(b1-2)Man(a1-6)]Man(b1-4)GlcNAc(b1-4)GlcNAc
# Outline: as §1
# [5] = target: Gal(b1-4)GlcNAc(b1-3)Gal(b1-4)GlcNAc(b1-3)Gal(b1-4)GlcNAc(b1-2)Man(a1-3)[Gal(b1-4)GlcNAc(b1-3)Gal(b1-4)GlcNAc(b1-3)Gal(b1-4)GlcNAc(b1-2)Man(a1-6)]Man(b1-4)GlcNAc(b1-4)[Fuc(a1-6)]GlcNAc
# Outline: as §1
# [6] = target: Gal(b1-4)GlcNAc(b1-3)Gal(b1-4)GlcNAc(b1-3)Gal(b1-4)GlcNAc(b1-2)[Gal(b1-4)GlcNAc(b1-3)Gal(b1-4)GlcNAc(b1-3)Gal(b1-4)GlcNAc(b1-6)]Man(a1-6)[Gal(b1-4)GlcNAc(b1-3)Gal(b1-4)GlcNAc(b1-3)Gal(b1-4)GlcNAc(b1-2)Man(a1-3)]Man(b1-4)GlcNAc(b1-4)[Fuc(a1-6)]GlcNAc
# Outline: as §1
# [7] = target: Gal(b1-4)GlcNAc(b1-3)Gal(b1-4)GlcNAc(b1-3)Gal(b1-4)GlcNAc(b1-3)Gal(b1-4)GlcNAc(b1-2)Man(a1-3)[Gal(b1-4)GlcNAc(b1-3)Gal(b1-4)GlcNAc(b1-3)Gal(b1-4)GlcNAc(b1-3)Gal(b1-4)GlcNAc(b1-2)Man(a1-6)]Man(b1-4)GlcNAc(b1-4)GlcNAc
# Outline: as §1
# [8] = target: Gal(b1-4)GlcNAc(b1-3)Gal(b1-4)GlcNAc(b1-3)Gal(b1-4)GlcNAc(b1-3)Gal(b1-4)GlcNAc(b1-2)Man(a1-3)[Gal(b1-4)GlcNAc(b1-3)Gal(b1-4)GlcNAc(b1-3)Gal(b1-4)GlcNAc(b1-3)Gal(b1-4)GlcNAc(b1-2)Man(a1-6)]Man(b1-4)GlcNAc(b1-4)[Fuc(a1-6)]GlcNAc
# Outline: as §1
# [9] = target: Gal(b1-4)GlcNAc(b1-3)Gal(b1-4)GlcNAc(b1-3)Gal(b1-4)GlcNAc(b1-3)Gal(b1-4)GlcNAc(b1-2)[Gal(b1-4)GlcNAc(b1-3)Gal(b1-4)GlcNAc(b1-3)Gal(b1-4)GlcNAc(b1-3)Gal(b1-4)GlcNAc(b1-6)]Man(a1-6)[Gal(b1-4)GlcNAc(b1-3)Gal(b1-4)GlcNAc(b1-3)Gal(b1-4)GlcNAc(b1-3)Gal(b1-4)GlcNAc(b1-2)Man(a1-3)]Man(b1-4)GlcNAc(b1-4)[Fuc(a1-6)]GlcNAc
# Outline: as §1
# [10] = target: Gal(b1-4)GlcNAc(b1-3)Gal(b1-4)GlcNAc(b1-3)Gal(b1-4)GlcNAc(b1-3)Gal(b1-4)GlcNAc(b1-3)Gal(b1-4)GlcNAc(b1-2)Man(a1-3)[Gal(b1-4)GlcNAc(b1-3)Gal(b1-4)GlcNAc(b1-3)Gal(b1-4)GlcNAc(b1-3)Gal(b1-4)GlcNAc(b1-3)Gal(b1-4)GlcNAc(b1-2)Man(a1-6)]Man(b1-4)GlcNAc(b1-4)GlcNAc
# Outline: as §1
# [11] = target: Gal(b1-4)GlcNAc(b1-3)Gal(b1-4)GlcNAc(b1-3)Gal(b1-4)GlcNAc(b1-3)Gal(b1-4)GlcNAc(b1-3)Gal(b1-4)GlcNAc(b1-2)Man(a1-3)[Gal(b1-4)GlcNAc(b1-3)Gal(b1-4)GlcNAc(b1-3)Gal(b1-4)GlcNAc(b1-3)Gal(b1-4)GlcNAc(b1-3)Gal(b1-4)GlcNAc(b1-2)Man(a1-6)]Man(b1-4)GlcNAc(b1-4)[Fuc(a1-6)]GlcNAc
# Outline: as §1
# [12] = target: Gal(b1-4)GlcNAc(b1-3)Gal(b1-4)GlcNAc(b1-3)Gal(b1-4)GlcNAc(b1-3)Gal(b1-4)GlcNAc(b1-3)Gal(b1-4)GlcNAc(b1-2)[Gal(b1-4)GlcNAc(b1-3)Gal(b1-4)GlcNAc(b1-3)Gal(b1-4)GlcNAc(b1-3)Gal(b1-4)GlcNAc(b1-3)Gal(b1-4)GlcNAc(b1-6)]Man(a1-6)[Gal(b1-4)GlcNAc(b1-3)Gal(b1-4)GlcNAc(b1-3)Gal(b1-4)GlcNAc(b1-3)Gal(b1-4)GlcNAc(b1-3)Gal(b1-4)GlcNAc(b1-2)Man(a1-3)]Man(b1-4)GlcNAc(b1-4)[Fuc(a1-6)]GlcNAc
# Outline: as §1
# [13] = target: Gal(b1-4)GlcNAc(b1-3)Gal(b1-4)GlcNAc(b1-3)Gal(b1-4)GlcNAc(b1-3)Gal(b1-4)GlcNAc(b1-3)Gal(b1-4)GlcNAc(b1-3)Gal(b1-4)GlcNAc(b1-2)Man(a1-3)[Gal(b1-4)GlcNAc(b1-3)Gal(b1-4)GlcNAc(b1-3)Gal(b1-4)GlcNAc(b1-3)Gal(b1-4)GlcNAc(b1-3)Gal(b1-4)GlcNAc(b1-3)Gal(b1-4)GlcNAc(b1-2)Man(a1-6)]Man(b1-4)GlcNAc(b1-4)GlcNAc
# Outline: as §1
# [14] = target: Gal(b1-4)GlcNAc(b1-3)Gal(b1-4)GlcNAc(b1-3)GalNAc
# Outline: as §1
# [15] = target: Gal(b1-4)GlcNAc(b1-3)Gal(b1-4)GlcNAc(b1-3)[Gal(b1-4)GlcNAc(b1-3)Gal(b1-4)GlcNAc(b1-6)]GalNAc
# Outline: as §1
# [16] = target: Gal(b1-4)GlcNAc(b1-3)Gal(b1-4)GlcNAc(b1-6)[Gal(b1-3)]GalNAc
# Outline: as §1
# [17] = target: Gal(b1-4)GlcNAc(b1-3)Gal(b1-4)[Fuc(a1-3)]GlcNAc(b1-3)Gal(b1-4)[Fuc(a1-3)]GlcNAc
# Outline: as §1
# [18] = target: Gal(b1-4)GlcNAc(b1-3)GalNAc
# Outline: as §1
# [19] = target: Gal(b1-4)GlcNAc(b1-3)[Fuc(a1-3)GlcNAc(b1-6)]Gal(b1-4)Glc
# Outline: as §1
# [20] = target: Gal(b1-4)GlcNAc(b1-3)[Gal(b1-4)GlcNAc(b1-6)]Gal(b1-4)GlcNAc
# Outline: as §1
# [21] = target: Gal(b1-4)GlcNAc(b1-3)[GlcNAc(b1-6)]Gal(b1-4)GlcNAc
# Outline: as §1
# [22] = target: Gal(b1-4)GlcNAc(b1-6)Gal(b1-4)GlcNAc
# Outline: as §1
# [23] = target: Gal(b1-4)GlcNAc(b1-6)GalNAc
# Outline: as §1
# [24] = target: Gal(b1-4)GlcNAc(b1-6)[Gal(b1-3)]GalNAc
# Outline: as §1
# [25] = target: Gal(b1-4)GlcNAc(b1-6)[Gal(b1-4)GlcNAc(b1-3)]GalNAc
# Outline: as §1
# [26] = target: Gal(b1-4)GlcNAc6P
# Outline: as §1
# [27] = target: Gal(b1-6)Gal
# Outline: as §1
# [28] = target: Gal3S(b1-3)GalNAc
# Outline: as §1
# [29] = target: Gal3S(b1-3)GlcNAc
# Outline: as §1
# [30] = target: Gal3S(b1-3)[Fuc(a1-4)]GlcNAc
# Outline: as §1
# [31] = target: Gal3S(b1-4)Glc
# Outline: as §1
# [32] = target: Gal3S(b1-4)Glc6S
# Outline: as §1
# [33] = target: Gal3S(b1-4)GlcNAc
# Outline: as §1
# [34] = target: Gal3S(b1-4)[Fuc(a1-3)]Glc6S
# Outline: as §1
# [35] = target: Gal3S(b1-4)[Fuc(a1-3)]GlcNAc
# Outline: as §1
# [36] = target: Gal3S(b1-4)[Fuc(a1-3)]GlcNAc6S
# Outline: as §1
# [37] = target: Gal3S4S(b1-4)GlcNAc
# Outline: as §1
# [38] = target: Gal3S6S(b1-4)GlcNAc
# Outline: as §1
# [39] = target: Gal3S6S(b1-4)GlcNAc6S
# Outline: as §1
# [40] = target: Gal4S(b1-4)GlcNAc
# Outline: as §1
# [41] = target: Gal4S6S(b1-4)GlcNAc
# Outline: as §1
# [42] = target: Gal6P(b1-4)GlcNAc
# Outline: as §1
# [43] = target: Gal6S(b1-3)GlcNAc
# Outline: as §1
# [44] = target: Gal6S(b1-3)GlcNAc6S
# Outline: as §1
# [45] = target: Gal6S(b1-4)Glc
# Outline: as §1
binder,measurement,setting,value
Pwp4 (Candida glabrata) (protein) MGSSHHHHHHSSGLVPRGSHMASVGNPITVSNVCSFPKNWHRTAGFRALTARLGIGIQSDSYKELLNYPGTFQLTTQQSSTTKPNFQISGLVGNIYGLTIVPSYLLVELTGYFVPPVSGEYTFSLEGSDDAAIIFIANPSTFKCGHVEDWPTAYDNDVTVTESIHATRTIYMIEGVAYPIRIAYYNGLSLGKLQASFTDPEGVKRVDWNGYIWRYDSCDTCSYV,glycan array binding signal (z-score),[1],0.642
same,glycan array binding signal (z-score),[2],2.34
same,glycan array binding signal (z-score),[3],-0.028
same,glycan array binding signal (z-score),[4],1.08
same,glycan array binding signal (z-score),[5],0.226
same,glycan array binding signal (z-score),[6],-0.489
same,glycan array binding signal (z-score),[7],-0.018
same,glycan array binding signal (z-score),[8],0.224
same,glycan array binding signal (z-score),[9],2.42
same,glycan array binding signal (z-score),[10],0.024
same,glycan array binding signal (z-score),[11],0.13
same,glycan array binding signal (z-score),[12],0.773
same,glycan array binding signal (z-score),[13],3.83
same,glycan array binding signal (z-score),[14],0.024
same,glycan array binding signal (z-score),[15],0.004
same,glycan array binding signal (z-score),[16],0.423
same,glycan array binding signal (z-score),[17],0.867
same,glycan array binding signal (z-score),[18],0.609
same,glycan array binding signal (z-score),[19],-0.674
same,glycan array binding signal (z-score),[20],-0.442
same,glycan array binding signal (z-score),[21],-0.151
same,glycan array binding signal (z-score),[22],0.23
same,glycan array binding signal (z-score),[23],-0.598
same,glycan array binding signal (z-score),[24],-0.024
same,glycan array binding signal (z-score),[25],0.033
same,glycan array binding signal (z-score),[26],-0.44
same,glycan array binding signal (z-score),[27],2
same,glycan array binding signal (z-score),[28],-0.376
same,glycan array binding signal (z-score),[29],-0.421
same,glycan array binding signal (z-score),[30],-0.233
same,glycan array binding signal (z-score),[31],-0.366
same,glycan array binding signal (z-score),[32],-0.85
same,glycan array binding signal (z-score),[33],1.49
same,glycan array binding signal (z-score),[34],0.255
same,glycan array binding signal (z-score),[35],-0.4
same,glycan array binding signal (z-score),[36],0.089
same,glycan array binding signal (z-score),[37],-0.688
same,glycan array binding signal (z-score),[38],-0.464
same,glycan array binding signal (z-score),[39],-0.248
same,glycan array binding signal (z-score),[40],-0.694
same,glycan array binding signal (z-score),[41],-0.38
same,glycan array binding signal (z-score),[42],-0.453
same,glycan array binding signal (z-score),[43],-0.488
same,glycan array binding signal (z-score),[44],-0.036
same,glycan array binding signal (z-score),[45],-0.127
